Test results taken from PubChem BioAssay AID463173 (ICCB-Longwood Screening Facility, Harvard Medical School, 2010).
Screen size: about 52,000 compounds; about 1,700 (3.3%) were called active. No stated cut-off is given here; in the data, active means survival mostly below about 52% (no sharp cut-off); inactive means mostly above about 56%. The list shows a part of the results.

System: Wild type
Assay: growth inhibition of S. aureus wild type versus tarO mutant, primary screen, teichoic acid synthesis inhibitors, RN4220, OD600 (AID 463173)
Settings: S. aureus RN4220 wild type/DeltatarO growth, OD600, 18 h, hits give low values, screened at 18.75 µg/mL (by protocol)

SMILES	survival
CCOC(=O)c1ccc(NC(=O)CCS(=O)(=O)c2ccc(C)cc2)cc1	inactive: 86%
Cc1cccc(-c2nc(CCNC(=O)c3ccco3)cs2)c1	active: -6%
COc1ccc(Cn2nnnc2C(c2ccccc2)N2CCC(C)CC2)cc1 (stereo not drawn)	inactive: 113%
COc1ccc(NC(=O)CN2CCCN(S(=O)(=O)c3ccc(Br)cc3)CC2)c(OC)c1	inactive: 86%
Cc1ccc2oc(C(=O)Nc3ccc(S(=O)(=O)N4CCCCCC4)cc3)cc(=O)c2c1	inactive: 79%
CCOC(=O)c1cc(C)n(CC2CCC(C(=O)Nc3ccc(OC)c(OC)c3)CC2)c1C (stereo not drawn)	inactive: 74%
COC(=O)C(C)(C)Sc1nnc2c(n1)[nH]c1c(C)cc(C)cc12	inactive: 103%
CCc1ccc(NC(=O)c2sc(-n3nc(C)c(Cc4ccc5c(c4)OCO5)c3C)nc2C)cc1	inactive: 82%
Cc1cc(C)cc(NS(=O)(=O)c2c(C)nc3scc(C)n3c2=O)c1	inactive: 86%
O=C(Oc1ccccc1F)c1nc(SCc2ccccc2F)ncc1Cl	inactive: 114%
CCOc1ccccc1NC(=O)Cn1c(=O)n(-c2ccc(C)c(C)c2)c(=O)c2oc3ccccc3c21	inactive: 83%
COc1ccccc1NC(=O)Cn1nc2c3cc(F)ccc3n(Cc3cccc(C)c3)cc-2c1=O	active: -4%
COc1ccc(Nc2ncc3c(n2)CCN(Cc2cccc(F)c2F)C3)c(OC)c1	inactive: 72%
Cc1ccc2nc(-c3cccc(NC(=O)CSc4ccc(Cl)cc4)c3)oc2c1	inactive: 71%
Cc1ccc(-c2nnn(CC(=O)Nc3cccc4cccnc34)n2)o1	inactive: 102%
CCN1CCC(N(Cc2ccc3c(c2)OCO3)C(=O)Nc2cccc(C)c2C)CC1	inactive: 83%
CC(=O)N1CCCc2cc(S(=O)(=O)NCc3ccccc3Cl)ccc21	inactive: 118%
CCc1ccc(Nc2nc3c(S(=O)(=O)c4ccc(C)cc4)nnn3c3ccsc23)cc1	inactive: 91%
Cc1ccc(N(C(=O)Cn2nnc(-c3ccc(C)o3)n2)C(C(=O)NC2CCCCC2)c2ccc(F)cc2)c(C)c1 (stereo not drawn)	inactive: 100%
Cc1ccc(C)c(NC(=O)c2cc(S(=O)(=O)N3CCN(c4cccc(Cl)c4)CC3)ccc2F)c1	inactive: 73%
CCN(Cc1ccccc1)C(=O)C1CCC(CNS(=O)(=O)c2ccc3c(c2)CCCC(=O)N3)CC1 (stereo not drawn)	inactive: 121%
CCN(C(=O)Cn1cc(S(=O)(=O)N2CCN(c3ccccc3F)CC2)c2ccccc2c1=O)c1ccc(C)c(C)c1	inactive: 131%

SMILES	survival
Cc1ccc(NC(=O)Cn2c(=O)n(-c3ccccc3)c(=O)c3ccc(C(=O)NCc4ccc5c(c4)OCO5)cc32)cc1	inactive: 132%
Oc1c(C(c2ccccc2Cl)N2CCC(O)CC2)sc2nc(-c3ccco3)nn12 (stereo not drawn)	inactive: 87%
O=C(Nc1ccccc1C(F)(F)F)c1noc2c1CCCC2	inactive: 72%
Cc1ccc(S(=O)(=O)c2nnn3c2nc(N2CCCC(C)C2)c2cc(Cl)ccc23)cc1C (stereo not drawn)	inactive: 90%
O=C(COc1ccc(Cl)cc1)Nc1ccc2nc(SCC(=O)N3CCOCC3)sc2c1	inactive: 88%
Cc1ccc(NCc2cc3cc4c(cc3n(CC(=O)Nc3ccc(F)cc3F)c2=O)OCCO4)cc1	inactive: 82%
Cc1nnc2c3ccccc3nc(Nc3ccccc3C(=O)O)n12	inactive: 83%
COc1ccc(S(=O)(=O)Nc2cc(-c3cn4ccc(C)cc4n3)ccc2C)cc1OC	inactive: 64%
CCn1ccc2cc(S(=O)(=O)N3CCC(C(=O)NCC(C)c4ccccc4)CC3)ccc21 (stereo not drawn)	inactive: 87%
CCOc1ccc(S(=O)(=O)NCc2ccc3c(c2)CCN3C(=O)c2ccc(C)cc2)cc1	inactive: 77%
Cc1ccc(Cl)cc1NC(=O)c1nnn(Cc2ccccc2)c1N	inactive: 85%
Cc1ccc(-n2ncc(C(=O)NCc3ccccn3)c2C2CCN(C(=O)OC(C)(C)C)CC2)cc1C	inactive: 124%
CCc1nc2c(cnn2-c2ccccc2)c(=O)n1-c1ccc(Br)cc1	inactive: 108%
COc1cccc(CNC(=O)C2CCN(Cc3cc4ccccc4n3Cc3ccccc3)CC2)c1OC	inactive: 88%
Cc1ccc(NC(=O)CSc2nc3ccccc3nc2Cc2ccccc2)c(Cl)c1	inactive: 95%
CCN(CC)CCNC(=O)c1ccc(-c2nc(CN3CCc4ccccc43)c(C)o2)cc1	inactive: 69%
CCOC(=O)c1cccc(NC(=O)CSc2cc(=O)n(C)c3ccccc23)c1	inactive: 79%
Cc1ccc(CN2c3ccccc3-c3nc(SCC(=O)NCCc4ccccc4)ncc3S2(=O)=O)cc1	active: 14%
O=C(Nc1ccc(C(F)(F)F)cc1)c1cc(S(=O)(=O)N2CCCc3ccccc32)ccc1F	inactive: 78%
CCOC(=O)c1ccc(Oc2nc(C)nc3c2oc2ccccc23)cc1	inactive: 45%
O=C(CN1C(=O)C2(SCC(=O)N2c2cccc(F)c2)c2ccccc21)NCc1ccccc1Cl (stereo not drawn)	inactive: 80%
CC(=O)N1C(=O)NC(=O)C1(C)C	inactive: 102%

SMILES	survival
Clc1ccc(CN2CCc3nc(N4CCN(c5ccccn5)CC4)ncc3C2)cc1	inactive: 68%
O=C(/C=C/c1ccccc1)Nc1nc2n(n1)C(c1ccc(Cl)cc1)C=C(c1ccccc1)N2 (stereo not drawn)	inactive: 49%
Cc1nnsc1C(=O)Oc1ccc(C#N)cc1	inactive: 83%
COc1ccc(C2/C(=C(/O)c3ccccc3)C(=O)C(=O)N2CC(OC)OC)c(OC)c1 (stereo not drawn)	inactive: 96%
CCCOc1ccc(NC(=O)CC2C(=O)N(c3ccc(OC)cc3)C(=O)N2CCc2ccncc2)cc1 (stereo not drawn)	inactive: 88%
CCc1nc2ccccc2n1CCCCOc1cccc(C)c1	active: 12%
Cc1ccc(/C(C#N)=C\c2cc(C)n(C)c2C)cc1	inactive: 104%
CC(C)(C)c1ccc(S(=O)(=O)c2cnc(SCC(=O)Nc3ccc4c(c3)OCCO4)[nH]c2=O)cc1	inactive: 126%
CC(C)CC(=O)NCC(c1ccc2c(c1)OCO2)N1CCN(c2ccc(F)cc2)CC1 (stereo not drawn)	inactive: 146%
CCCS(=O)(=O)c1nc(S(=O)(=O)c2ccc(C)cc2)c(NCCCOC(C)C)s1	inactive: 124%
COc1ccc2nc(SCC(O)c3cccc(Br)c3)[nH]c2c1 (stereo not drawn)	inactive: 84%
O=C(CCCSc1nc(-c2ccco2)cc(C(F)(F)F)n1)NCC1CCCO1 (stereo not drawn)	inactive: 108%
CC1=NN(C(C#N)c2ccccc2)C(C)(C)C1 (stereo not drawn)	inactive: 113%
N#Cc1cc(Cl)c(N2CCCCCC2)cc1C#N	inactive: 110%
COc1cccc2c1cc1c(=O)n(CC(=O)N3CCN(c4ccc(F)cc4)CC3)nc(C)n12	inactive: 81%
CCN(CC)C(=O)CSc1nc2cc3c(cc2c(=O)n1CCCC(=O)NCc1ccc2c(c1)OCO2)OCO3	inactive: 119%
COc1ccc(-c2cn3c(n2)sc2cc(C(=O)NCCCc4ccccc4)ccc23)cc1	inactive: 86%
Cc1nn(-c2ccc(N3CCCCC3)nn2)c(C)c1CCC(=O)NCc1ccccc1	inactive: 76%
O=C(Cn1nc(N2CCN(c3ccccc3)CC2)ccc1=O)NCc1ccccc1F	inactive: 71%
Cc1ccc(Sc2ccc(N3CCCC(C(=O)Nc4ccc(F)cc4)C3)nn2)cc1 (stereo not drawn)	inactive: 60%
N#C/C(=C/c1cccs1)C(=O)O	inactive: 106%
Cc1ccc(-c2nnc(SCC(=O)NC(C)(C)C)nc2-c2ccc(C)cc2)cc1	inactive: 71%

SMILES	survival
Cc1cccc(C(=O)Nc2ccccc2OCc2cc(=O)n3ccccc3n2)c1	inactive: 63%
COc1ccc(C)cc1NS(C)(=O)=O	inactive: 105%
CCOc1ccc(NC(=O)c2cn(C3CCCCC3)c(=O)c3c2c2ccccc2n3C)cc1	inactive: 78%
O=C(CN1C(=O)COc2ccccc21)c1ccc(Cl)cc1	inactive: 106%
CCOc1ccc(C(=O)N(Cc2nc(-c3cccc(C)c3)no2)C(C)C)cc1	active: 2%
Cn1c(=O)c2c(nc(NCCc3ccccc3)n2Cc2ccccc2Br)n(C)c1=O	inactive: 74%
COc1ccc(-c2nc(CN3CCC(C(=O)NCc4ccc(C)cc4)CC3)c(C)o2)cc1OC	inactive: 95%
CCOc1ccc(CNC(=O)CCCn2c(=O)c3cccn3c3ccccc32)cc1	inactive: 57%
Cc1nn(-c2ccccc2)c(Cl)c1C(N)=O	inactive: 96%
NC(=O)c1c(NC(=O)CN2CCCC2)sc2c1CCCC2	inactive: 96%
CCOc1ccccc1Nc1nc2ccccc2nc1NS(=O)(=O)c1ccc(Cl)cc1	inactive: 72%
COc1ccc(C(=O)n2nc(-c3cccnc3)nc2NCc2ccccc2)cc1OC	inactive: 87%
COc1ccc(CCNC(=O)C(=O)NCC(c2cccs2)S(=O)(=O)c2cccs2)cc1 (stereo not drawn)	inactive: 83%
Cn1c(=O)c2[nH]c(=S)[nH]c2n(C)c1=O	inactive: 109%
CC(=O)N1CCCc2cc(S(=O)(=O)N3CCC(C(=O)Nc4c(C)cccc4C)CC3)ccc21	inactive: 78%
Cc1cc(C)c(NC(=O)CSc2nc3nccnc3c(=O)n2CCc2c[nH]c3ccccc23)c(C)c1	inactive: 85%
CCOc1cccc(C(=O)Nc2ccc3oc(-c4ccncc4)nc3c2)c1	inactive: 73%
COc1ccc(-c2cc(OC(=O)c3ccccc3Cl)c3c(C)oc(C)c3c(=O)c2)cc1OC	inactive: 77%
COc1cc(OC)c(NS(=O)(=O)c2c(C)nc3sc(C)cn3c2=O)cc1Cl	inactive: 88%
CCc1nnc(SCc2cccc(Cl)c2)c2cc3sccc3n12	active: 2%
COc1ccc2c(CNC3CCCCCC3)c(C(=O)O)n(Cc3ccc(C)cc3)c2c1	inactive: 79%
Cc1ccc(-c2noc(-c3cccnc3NCc3ccco3)n2)cc1	inactive: 88%
